The values that follow come from publication PMC10336126.

Amino acid sequences for entries named in this document (tags omitted).
UniProt Q7Z333: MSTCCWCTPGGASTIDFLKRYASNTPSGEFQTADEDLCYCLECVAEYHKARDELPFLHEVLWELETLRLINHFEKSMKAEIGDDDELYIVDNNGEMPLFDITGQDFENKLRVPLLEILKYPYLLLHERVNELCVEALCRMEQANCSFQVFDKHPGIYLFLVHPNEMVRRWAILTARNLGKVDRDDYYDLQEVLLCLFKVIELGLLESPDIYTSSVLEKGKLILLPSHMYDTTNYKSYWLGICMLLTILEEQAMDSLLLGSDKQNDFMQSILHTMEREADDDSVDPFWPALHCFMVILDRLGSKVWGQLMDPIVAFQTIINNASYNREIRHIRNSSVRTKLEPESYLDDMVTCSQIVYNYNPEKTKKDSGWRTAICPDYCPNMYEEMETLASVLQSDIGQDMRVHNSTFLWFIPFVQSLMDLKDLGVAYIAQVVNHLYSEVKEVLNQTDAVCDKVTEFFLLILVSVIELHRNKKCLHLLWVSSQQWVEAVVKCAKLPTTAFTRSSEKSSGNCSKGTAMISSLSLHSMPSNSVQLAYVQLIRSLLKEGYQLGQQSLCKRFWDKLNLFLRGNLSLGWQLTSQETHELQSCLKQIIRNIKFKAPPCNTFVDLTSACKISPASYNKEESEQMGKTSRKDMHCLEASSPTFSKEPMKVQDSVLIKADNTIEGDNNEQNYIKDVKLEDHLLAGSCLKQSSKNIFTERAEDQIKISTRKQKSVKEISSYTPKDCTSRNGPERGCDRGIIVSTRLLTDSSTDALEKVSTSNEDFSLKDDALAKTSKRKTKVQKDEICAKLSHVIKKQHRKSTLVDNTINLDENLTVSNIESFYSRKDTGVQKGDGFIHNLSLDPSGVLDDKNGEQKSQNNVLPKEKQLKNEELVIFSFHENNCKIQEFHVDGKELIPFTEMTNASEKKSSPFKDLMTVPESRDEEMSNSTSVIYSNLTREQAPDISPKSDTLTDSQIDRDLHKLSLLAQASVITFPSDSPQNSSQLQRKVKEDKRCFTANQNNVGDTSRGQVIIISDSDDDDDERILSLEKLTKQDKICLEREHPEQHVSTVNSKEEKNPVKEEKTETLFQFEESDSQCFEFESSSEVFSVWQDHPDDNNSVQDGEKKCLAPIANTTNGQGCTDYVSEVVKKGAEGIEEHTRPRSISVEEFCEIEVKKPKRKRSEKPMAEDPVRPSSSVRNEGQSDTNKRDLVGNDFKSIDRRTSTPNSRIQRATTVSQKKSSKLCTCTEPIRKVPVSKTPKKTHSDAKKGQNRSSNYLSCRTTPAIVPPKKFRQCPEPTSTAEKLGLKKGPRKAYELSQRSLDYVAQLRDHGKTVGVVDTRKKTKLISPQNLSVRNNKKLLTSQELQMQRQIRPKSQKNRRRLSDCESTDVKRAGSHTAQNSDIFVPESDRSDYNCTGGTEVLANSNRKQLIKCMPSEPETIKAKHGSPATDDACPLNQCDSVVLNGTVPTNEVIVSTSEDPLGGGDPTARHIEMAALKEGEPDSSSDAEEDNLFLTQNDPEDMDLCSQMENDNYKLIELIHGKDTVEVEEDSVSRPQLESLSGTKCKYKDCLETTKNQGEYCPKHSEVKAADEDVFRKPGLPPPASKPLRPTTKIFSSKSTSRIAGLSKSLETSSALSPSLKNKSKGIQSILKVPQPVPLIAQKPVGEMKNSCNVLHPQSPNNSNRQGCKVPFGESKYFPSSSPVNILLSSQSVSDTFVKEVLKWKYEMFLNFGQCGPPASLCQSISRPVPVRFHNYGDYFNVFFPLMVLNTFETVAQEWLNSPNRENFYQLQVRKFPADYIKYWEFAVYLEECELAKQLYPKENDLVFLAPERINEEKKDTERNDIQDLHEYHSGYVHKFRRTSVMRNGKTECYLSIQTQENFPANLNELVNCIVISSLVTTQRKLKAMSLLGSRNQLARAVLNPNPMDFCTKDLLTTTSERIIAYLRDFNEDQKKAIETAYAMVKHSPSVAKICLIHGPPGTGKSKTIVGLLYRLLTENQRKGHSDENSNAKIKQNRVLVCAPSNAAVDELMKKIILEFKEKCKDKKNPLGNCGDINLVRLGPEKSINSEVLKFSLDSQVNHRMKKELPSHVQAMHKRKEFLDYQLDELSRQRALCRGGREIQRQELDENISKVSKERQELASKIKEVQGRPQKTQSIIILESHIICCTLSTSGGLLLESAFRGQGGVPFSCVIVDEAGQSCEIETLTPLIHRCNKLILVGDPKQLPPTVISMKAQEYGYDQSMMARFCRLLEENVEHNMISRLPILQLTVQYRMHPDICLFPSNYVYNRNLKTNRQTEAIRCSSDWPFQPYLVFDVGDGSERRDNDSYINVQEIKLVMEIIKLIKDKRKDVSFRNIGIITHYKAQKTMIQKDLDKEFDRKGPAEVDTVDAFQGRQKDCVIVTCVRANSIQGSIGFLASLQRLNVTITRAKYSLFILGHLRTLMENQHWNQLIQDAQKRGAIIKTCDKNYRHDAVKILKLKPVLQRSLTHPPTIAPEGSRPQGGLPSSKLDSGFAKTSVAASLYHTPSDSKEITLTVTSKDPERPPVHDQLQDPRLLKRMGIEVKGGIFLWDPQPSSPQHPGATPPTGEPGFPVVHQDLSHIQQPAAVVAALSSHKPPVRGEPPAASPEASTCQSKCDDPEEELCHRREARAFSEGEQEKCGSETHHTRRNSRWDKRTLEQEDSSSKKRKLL
UniProt Q00416: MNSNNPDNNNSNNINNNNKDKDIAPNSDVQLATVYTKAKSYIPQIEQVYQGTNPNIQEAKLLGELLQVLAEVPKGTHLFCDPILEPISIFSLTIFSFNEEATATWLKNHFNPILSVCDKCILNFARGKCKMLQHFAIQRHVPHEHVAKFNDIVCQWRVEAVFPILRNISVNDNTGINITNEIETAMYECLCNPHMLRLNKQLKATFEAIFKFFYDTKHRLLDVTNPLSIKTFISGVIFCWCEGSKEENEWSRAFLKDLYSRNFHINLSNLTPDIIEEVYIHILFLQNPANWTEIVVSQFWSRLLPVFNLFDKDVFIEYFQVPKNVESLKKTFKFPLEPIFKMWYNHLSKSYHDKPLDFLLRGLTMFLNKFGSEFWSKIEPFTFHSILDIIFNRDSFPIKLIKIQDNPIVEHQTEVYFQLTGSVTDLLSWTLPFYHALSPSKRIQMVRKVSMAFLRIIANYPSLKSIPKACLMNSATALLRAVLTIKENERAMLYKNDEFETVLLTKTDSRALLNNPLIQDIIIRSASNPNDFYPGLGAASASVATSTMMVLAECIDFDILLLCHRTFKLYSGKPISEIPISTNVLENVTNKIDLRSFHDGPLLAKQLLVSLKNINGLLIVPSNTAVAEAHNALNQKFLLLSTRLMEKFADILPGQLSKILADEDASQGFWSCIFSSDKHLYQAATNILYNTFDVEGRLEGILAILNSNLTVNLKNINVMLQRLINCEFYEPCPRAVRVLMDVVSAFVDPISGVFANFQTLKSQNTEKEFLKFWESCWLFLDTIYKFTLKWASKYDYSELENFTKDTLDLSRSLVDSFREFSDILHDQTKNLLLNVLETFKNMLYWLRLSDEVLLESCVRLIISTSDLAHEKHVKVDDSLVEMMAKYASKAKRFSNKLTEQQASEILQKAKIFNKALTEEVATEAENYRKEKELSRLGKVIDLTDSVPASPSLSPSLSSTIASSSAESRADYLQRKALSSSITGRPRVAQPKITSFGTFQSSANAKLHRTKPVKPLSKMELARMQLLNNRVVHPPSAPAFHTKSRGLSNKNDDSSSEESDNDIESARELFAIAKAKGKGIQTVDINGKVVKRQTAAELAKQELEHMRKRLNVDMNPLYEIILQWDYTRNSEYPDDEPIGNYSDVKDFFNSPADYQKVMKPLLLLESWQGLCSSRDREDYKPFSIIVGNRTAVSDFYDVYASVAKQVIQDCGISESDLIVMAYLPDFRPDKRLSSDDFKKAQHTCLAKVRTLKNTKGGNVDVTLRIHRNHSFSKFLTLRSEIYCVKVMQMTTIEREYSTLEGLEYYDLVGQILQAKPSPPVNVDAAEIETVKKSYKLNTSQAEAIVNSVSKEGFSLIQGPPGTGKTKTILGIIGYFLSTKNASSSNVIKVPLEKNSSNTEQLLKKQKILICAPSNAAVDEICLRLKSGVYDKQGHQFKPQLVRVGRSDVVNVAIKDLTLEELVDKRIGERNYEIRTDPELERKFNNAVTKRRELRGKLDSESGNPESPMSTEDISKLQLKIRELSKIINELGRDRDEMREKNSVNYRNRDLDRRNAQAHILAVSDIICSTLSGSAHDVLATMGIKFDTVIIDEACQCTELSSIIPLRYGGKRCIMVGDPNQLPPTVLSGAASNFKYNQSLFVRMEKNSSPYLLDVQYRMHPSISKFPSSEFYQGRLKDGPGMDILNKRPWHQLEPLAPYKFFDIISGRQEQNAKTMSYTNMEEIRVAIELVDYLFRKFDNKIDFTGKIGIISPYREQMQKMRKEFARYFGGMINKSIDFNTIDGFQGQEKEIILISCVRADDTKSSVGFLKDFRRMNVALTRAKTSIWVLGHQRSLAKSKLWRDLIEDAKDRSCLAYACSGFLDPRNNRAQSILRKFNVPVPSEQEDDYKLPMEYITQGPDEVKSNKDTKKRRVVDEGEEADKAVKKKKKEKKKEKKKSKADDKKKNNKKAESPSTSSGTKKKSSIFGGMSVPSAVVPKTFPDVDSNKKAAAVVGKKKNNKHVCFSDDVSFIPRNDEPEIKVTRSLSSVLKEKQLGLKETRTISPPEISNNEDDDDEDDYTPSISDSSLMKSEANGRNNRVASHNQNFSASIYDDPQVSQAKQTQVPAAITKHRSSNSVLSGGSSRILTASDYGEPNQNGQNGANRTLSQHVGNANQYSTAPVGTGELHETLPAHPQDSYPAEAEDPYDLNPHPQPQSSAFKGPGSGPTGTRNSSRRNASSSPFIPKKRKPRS
UniProt P32598: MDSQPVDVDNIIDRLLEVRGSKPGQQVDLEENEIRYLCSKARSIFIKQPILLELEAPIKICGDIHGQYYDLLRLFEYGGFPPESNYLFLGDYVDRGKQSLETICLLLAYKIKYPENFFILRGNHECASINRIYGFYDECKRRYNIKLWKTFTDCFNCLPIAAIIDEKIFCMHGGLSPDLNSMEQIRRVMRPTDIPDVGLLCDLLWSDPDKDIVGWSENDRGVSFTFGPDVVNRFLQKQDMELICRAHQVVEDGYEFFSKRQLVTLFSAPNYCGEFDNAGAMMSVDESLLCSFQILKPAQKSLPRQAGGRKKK
UniProt P62136: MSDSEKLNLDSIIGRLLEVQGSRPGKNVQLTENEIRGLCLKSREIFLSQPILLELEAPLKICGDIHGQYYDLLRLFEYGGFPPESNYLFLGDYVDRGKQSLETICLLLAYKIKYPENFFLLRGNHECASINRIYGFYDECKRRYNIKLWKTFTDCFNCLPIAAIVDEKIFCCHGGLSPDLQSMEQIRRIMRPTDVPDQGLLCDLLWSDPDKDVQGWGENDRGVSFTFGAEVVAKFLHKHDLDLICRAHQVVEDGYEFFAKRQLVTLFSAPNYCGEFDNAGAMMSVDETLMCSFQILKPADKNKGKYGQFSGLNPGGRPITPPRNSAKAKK

These are yes or no findings as the source states them, for the method shown. In cells and extracts the contact can be indirect. Some results given as binding are weak or reduced against the parent protein; the word gives no strength. For some assays here: Tags and fused reporters may be left off the sequences shown.

Assay [1] concerns the target Rif1 (mammalian homolog of yeast Rif1) (human (in human cell lines: HeLa, HUVEC, HEK293T)) (UniProt Q5UIP0). The assay can be described thus: co-IP; mammalian cells lysed in buffer A (50 mM Tris pH7.4, 150 mM NaCl, 1 mM EDTA, 6 mM sodium deoxycholate, 1% NP-40); antibody on Protein A/G Sepharose, 4 °C overnight; immunoblot.
Assay [2] has as its target senataxin (SETX), homolog of Sen1 (human (in human cell lines: HeLa, HUVEC, HEK293T)) (UniProt Q7Z333). The assay is described as above.
Assay [3] concerns the target Sen1, endogenously expressed (tag not stated) (budding yeast (endogenous in yeast cells)) (UniProt Q00416). Briefly: co-IP; yeast whole cell extract; anti-FLAG M2 agarose, calmodulin Sepharose beads or antibody on Protein A/G Sepharose, 4 °C; washes with 350 mM NaCl, 0.1% NP-40; immunoblot; also cells in SD (+Glu) or SD-C (-Glu) medium for 2 h (Sen1-Glc7 increased, Rif1-Glc7 unaffected without glucose). Background: A western blot detects proteins with antibodies after separation by electrophoresis.

Assay [4] concerns the target Glc7 (protein phosphatase 1 catalytic subunit), endogenously expressed (budding yeast (endogenous in yeast cells)) (UniProt P32598). The assay is described as above.
The target of assay [5] is PPP1CA (PP1 catalytic subunit, alpha isoform) (human (in human cell lines: HeLa, HUVEC, HEK293T)) (UniProt P62136). Briefly: co-IP; mammalian cells lysed in buffer A (50 mM Tris pH7.4, 150 mM NaCl, 1 mM EDTA, 6 mM sodium deoxycholate, 1% NP-40); antibody on Protein A/G Sepharose, 4 °C overnight; immunoblot.

As for “PPP1CA (PP1 catalytic subunit, alpha isoform) (from UniProt P62136 1-330) (enzyme)”, the binding entry in assay [1] and in assay [2] was “binds” in each case.
For the molecule “Rif1 (Rap1-interacting factor 1), endogenously expressed (tag not stated) (from UniProt P29539 1-1916)”, the figures for the binding entry in assay [3] and in assay [4] were “no binding” and “binds”, respectively.
Take “Rif1 (mammalian homolog of yeast Rif1) (from UniProt Q5UIP0 1-2472)”: in assay [5], the binding result is given as “binds”.
Regarding “Sen1-TAP, endogenously expressed (from UniProt Q00416 1-2231)”, the binding entry in assay [4] is recorded as “binds”.
On to “senataxin (SETX), homolog of Sen1 (from UniProt Q7Z333 1-2677)”, for which, in assay [5], the binding entry was “binds”.

B1: Reb1 (protein, UniProt P21538 1-810)
chain: MPSGHNDKNANQESVEEAVLKYVGVGLDHQNHDPQLHTKDLENKHSKKQNIVESSSDVDVNNNDDSNRNEDNNDDSENISALNANESSSNVDHANSNEQHNAVMDWYLRQTAHNQQDDEDDENNNNTDNGNDSNNHFSQSDIVVDDDDDKNKKDAGVGVDDDHQSMAMAAVAAAYTLSKNNNNNNSIANDSNSRKRQHDNGNNHENSQKKRKNNNDDDDRQIGNVDPELTTLGDADDNDTNNDVIDRDQLVHKAIIDADSITQHPDFQQYLNTAADTDDNEKLKHIKDHLMRTHGLNHQNKNHNDDTDDLSNSTKQYSELQKDSMLDSSLNKSRNYMEVLPKVISQDTQPHQQKSPSHDNEAGSVDNSEISQLLQSAATKASSLVSLSSSSATPSTSRSNNSKAFDKAEDAALERFINEYEAIERLTRQQVCERIWSSDRPKDNFWNNIYKVLPYRSSSSIYKHMRRKYHIFEQRGKWTAEEEQELAKLCAEKEGQWAEIGKTLGRMPEDCRDRWRNYVKCGTNRASNRWSVEEEELLKKVISDMLEEAQQQQSQLHPNLLEEEQHLLQDDQNDHRNNDEDDDDTASAAAAAAAAIQEQQQLLQQKQQDDDDAIAAAAAAASSSLGDNKDEDKPHDSLGIQLDDNSQNSMVPAPSATSTHSKSLSNTIRRHNNKLRKSLMGNGKLDFKDIINWTIVSERMGGTRSRIQCRYKWNKLVKREAIAKIQTVKDDDMLWIFEKLRDLGITEDSQVDWDELAALKPGMKLNGLELKLCYERMKKKVKGYKQKSINEISKELVDYFSSNISMKTEN
With B1, the binding entry in assay [4] is recorded as “no binding”.

B2: Nab3 (protein, UniProt P38996 1-802)
chain: MSDENHNSDVQDIPSPELSVDSNSNENELMNNSSADDGIEFDAPEEEREAEREEENEEQHELEDVNDEEEEDKEEKGEENGEVINTEEEEEEEHQQKGGNDDDDDDNEEEEEEEEDDDDDDDDDDDDEEEEEEEEEEGNDNSSVGSDSAAEDGEDEEDKKDKTKDKEVELRRETLEKEQKDVDEAIKKITREENDNTHFPTNMENVNYDLLQKQVKYIMDSNMLNLPQFQHLPQEEKMSAILAMLNSNSDTALSVPPHDSTISTTASASATSGARSNDQRKPPLSDAQRRMRFPRADLSKPITEEEHDRYAAYLHGENKITEMHNIPPKSRLFIGNLPLKNVSKEDLFRIFSPYGHIMQINIKNAFGFIQFDNPQSVRDAIECESQEMNFGKKLILEVSSSNARPQFDHGDHGTNSSSTFISSAKRPFQTESGDMYNDDNGAGYKKSRRHTVSCNIFVKRTADRTYAIEVFNRFRDGTGLETDMIFLKPRMELGKLINDAAYNGVWGVVLVNKTHNVDVQTFYKGSQGETKFDEYISISADDAVAIFNNIKNNRNNSRPTDYRAMSHQQNIYGAPPLPVPNGPAVGPPPQTNYYQGYSMPPPQQQQQQPYGNYGMPPPSHDQGYGSQPPIPMNQSYGRYQTSIPPPPPQQQIPQGYGRYQAGPPPQPPSQTPMDQQQLLSAIQNLPPNVVSNLLSMAQQQQQQPHAQQQLVGLIQSMQGQAPQQQQQQLGGYSSMNSSSPPPMSTNYNGQNISAKPSAPPMSHQPPPPQQQQQQQQQQQQQQQQPAGNNVQSLLDSLAKLQK
Turning to B2, the binding result in assay [4] is on record as “binds”.

B3: Rif2 (protein, UniProt Q06208 1-395)
chain: MEHVDSDFAPIRRSKKVVDSDKIVKAISDDLEQKNFTVLRKLNLVPIKKSVSSPKVCKPSPVKERVDHVFYQKFKSMALQELGTNYLSISYVPSLSKFLSKNLRSMKNCIVFFDKVEHIHQYAGIDRAVSETLSLVDINVVIIEMNDYLMKEGIQSSKSKECIESMGQASYSGQLDFEASEKPSNHTSDLMMMVMRKINNDESIDHIVYFKFEQLDKLSTSTIIEPSKLTEFINVLSVLEKSNNIAFKVLIYSNNVSISSLLSTSLKKKLNTKYTVFEMPILTCAQEQEYLKKMIKFTFDSGSKLLQSYNSLVTCQLNNKESNLAIFFEFLKVFPHPFTYLFNAYTEIIVQSRTFDELLDKIRNRLTIKNYPHSAYNFKKNQRLPLKLTRKVHDR
In the case of B3, in assay [4], the binding entry is “no binding”.

B4: Cdc13 (protein, UniProt P32797 1-924)
chain: MDTLEEPECPPHKNRIFVSSSKDFEGYPSKAIVPVQFVALLTSIHLTETKCLLGFSNFERRGDQSQEDQYLIKLKFKDRGSERLARITISLLCQYFDIELPDLDSDSGASPTVILRDIHLERLCFSSCKALYVSKHGNYTLFLEDIKPLDLVSVISTISTKSTNSSKHSSSELISECDLNNSLVDIFNNLIEMNRDEKNRFKFVKLIHYDIELKKFVQDQQKVLSQKSKAAAINPFFVPNRLGIPYIESQNEFNSQLMTLNVDEPTTDISNMGEEMHDSADPIEDSDSSTTSSTGKYFSSKSYIQSQTPERKTSVPNNWHDDDSGSKRKRKLSFHSPNASSIRKAISYEQLSLASVGSVERLEGKIVGMNPPQFASINEFKYCTLKLYFTQLLPNVPDKVLVPGVNCIEIVIPTRERICELFGVLNCQSDKISDILLLEKPDRISVEVERILWDNDKTASPGMAVWSLKNISTDTQAQAQVQVPAQSSASIDPSRTRMSKMARKDPTIEFCQLGLDTFETKYITMFGMLVSCSFDKPAFISFVFSDFTKNDIVQNYLYDRYLIDYENKLELNEGFKAIMYKNQFETFDSKLRKIFNNGLRDLQNGRDENLSQYGIVCKMNIKVKMYNGKLNAIVRECEPVPHSQISSIASPSQCEHLRLFYQRAFKRIGESAISRYFEEYRRFFPIHRNGSHLAKLRFDEVKHEPKKSPTTPALAEHIPDLNADVSSFDVKFTDISSLLDSSARLPRPQQTHKSNTLYSCEGRIIAIEYHASDLCFHITNELPLLQTRGLAPERVLQLHIITSKNFAYFFNRSSAYLQRQPLEEKYTQLAQFLGHSFKFNITSSLTLFPDTTVALQIWCPIECTFRELQQQLAHPKVAAAPDSGSLDCAINATVNPLRLLAAQNGVTVKKEEDNDDDAGAVPTS
Take B4: the binding entry in assay [4] is “no binding”.

B5: Rap1, endogenously expressed (tag not stated) (protein, UniProt P11938 1-827)
chain: MSSPDDFETAPAEYVDALDPSMVVVDSGSAAVTAPSDSAAEVKANQNEENTGATAAETSEKVDQTEVEKKDDDDTTEVGVTTTTPSIADTAATANIASTSGASVTEPTTDDTAADEKKEQVSGPPLSNMKFYLNRDADAHDSLNDIDQLARLIRANGGEVLDSKPRESKENVFIVSPYNHTNLPTVTPTYIKACCQSNSLLNMENYLVPYDNFREVVDSRLQEESHSNGVDNSNSNSDNKDSIRPKTEIISTNTNGATEDSTSEKVMVDAEQQARLQEQAQLLRQHVSSTASITSGGHNDLVQIEQPQKDTSNNNNSNVNDEDNDLLTQDNNPQTADEGNASFQAQRSMISRGALPSHNKASFTDEEDEFILDVVRKNPTRRTTHTLYDEISHYVPNHTGNSIRHRFRVYLSKRLEYVYEVDKFGKLVRDDDGNLIKTKVLPPSIKRKFSADEDYTLAIAVKKQFYRDLFQIDPDTGRSLITDEDTPTAIARRNMTMDPNHVPGSEPNFAAYRTQSRRGPIAREFFKHFAEEHAAHTENAWRDRFRKFLLAYGIDDYISYYEAEKAQNREPEPMKNLTNRPKRPGVPTPGNYNSAAKRARNYSSQRNVQPTANAASANAAAAAAAAASNSYAIPENELLDEDTMNFISSLKNDLSNISNSLPFEYPHEIAEAIRSDFSNEDIYDNIDPDTISFPPKIATTDLFLPLFFHFGSTRQFMDKLHEVISGDYEPSQAEKLVQDLCDETGIRKNFSTSILTCLSGDLMVFPRYFLNMFKDNVNPPPNVPGIWTHDDDESLKSNDQEQIRKLVKKHGTGRMEMRKRFFEKDLL
For the molecule B5, the binding entry in assay [3] was “no binding”; in assay [4], “binds”.

B6: Nrd1 (protein, UniProt P53617 1-575)
chain: MQQDDDFQNFVATLESFKDLKSGISGSRIKKLTTYALDHIDIESKIISLIIDYSRLCPDSHKLGSLYIIDSIGRAYLDETRSNSNSSSNKPGTCAHAINTLGEVIQELLSDAIAKSNQDHKEKIRMLLDIWDRSGLFQKSYLNAIRSKCFAMDISNNTANTASQQLSLDPKQRSKQILSNLKKSPPLNLNISLPTDLTSTDPAKQQAALFQVIAALQKHFKTLPSHTSVGTVAPPQAHTITEYGSRRERERERERYNSRRNRSRSPPAPFSQPSTGRKDRYPSVAQDQYSIGAPNTTFGTNNHHLYPDELNVSNNPHYRPKPVSYDSTLPPDHIKVYSRTLFIGGVPLNMKEWDLANVLKPFAEVQSVILNNSRKHAFVKVYSRHEAENVLQNFNKDGALPLRTRWGVGFGPRDCCDYQHGYSIIPMHRLTDADKKWSVSAQWGGTSGQPLVTGIVFEEPDIIVGEGVSSKAISQKMPTDSGRNGPRSGKPNKSGSISSISPVPYGNAPLASPPPQQYVQPMMQQPYGYAPNQPLPSQGPAAAAPPVPQQQFDPTAQLNSLMNMLNQQQQQQQQS
With B6, the binding entry in assay [4] is reported as “binds”.
